Results published in the supplement of paper PMC10338343.
± gives the standard deviation. The list shows a part of the results, in another mix than the full data.

System: MIWI (PIWIL1) piRISC loaded with L1MC piRNA (30 nt)
Assay: pre-steady-state target cleavage rate (min^-1); MIWI and MILI are mouse PIWI proteins and EfPiwi is from a freshwater sponge; tags in brackets are library labels; higher = faster piRNA-guided slicing of the target
Conditions: guide: L1MC piRNA 5'p-UAACUAAAUACUAUGCAAGCUGUAGGUCCU
Procedure, shortened: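 A burst-and-steady-state fit was used to obtain the pre-steady-state cleavage rate. The input data were sequencing reads of uncleaved targets, normalised to depth and to weakly complementary targets, from a […] transcribed, DNA-blocked target RNA library mixed with 1 nM active affinity-purified piRISC holding one synthetic guide, with or without 500 nM GTSF1 partner protein, in HEPES–potassium acetate buffer at 33 °C for 0–8 or 0–960 min. Three trials were pooled and k3 was capped at 0.0001 min^-1.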

[1] = auxiliary factor: 500 nM mouse GTSF1
[2] = auxiliary factor: none (no GTSF1)
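Further: 1 nM active piRISC with 0.1 nM target library at 33 °C single turnover.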

Row | Sequence | pre-steady-state target cleavage rate [1] | pre-steady-state target cleavage rate [2]
1 | UCCUGCUUCAGCUUGCAUAGUAUUUAGUUA | 1.19 ± 0.051 | 0.0684 ± 0.012
2 | UCCUGGAUCAGCUUGCAUAGUAUUCUAGUUA | 0.583 ± 0.066 | 0.0159 ± 0.0048
3 | UCCUCCUACAGCUAGCAUAGUAAUUAGUUA | 0.431 ± 0.033 | 0.00456 ± 0.0022
4 | UCGACCUACAGCUAGCAUAGUAUUUAGUUA | 1.28 ± 0.053 | 0.0292 ± 0.0072
5 | AGGACCUACAGCUUGCAUAGUAUUUACAUA | 0.359 ± 0.056 | 0.0253 ± 0.0072
6 | UCCUGGUACAGCUUGAAUAGUAUUUAGUUA | 0.432 ± 0.087 | 0.0124 ± 0.0031
7 | AGGACCUAGUGCUUGCAUAGUAUUUAGUUA | 0.852 ± 0.07 | 0.0602 ± 0.011
8 | UCCUCCAACAGCUUGCAUAGUAAUUAGUUA | 0.761 ± 0.034 | 0.0252 ± 0.0062
9 | UCCACCUAGUGCUUGCAUAGUAUUUAGUUA | 0.296 ± 0.035 | 0.0239 ± 0.0033
10 | UGGACCAAGAGCUUGCAUAGUAUUUAGUUA | 1.08 ± 0.065 | 0.0427 ± 0.0075
11 | UGGACCUACAGCUUGCAUUGUAUUUAGAAA | 0.147 ± 0.024 | 0.00674 ± 0.0022
12 | AGGACCUACAGCUUGCAUAGUAUUAAGUUA | 0.712 ± 0.055 | 0.0489 ± 0.011
13 | UCCUGGAUGUCGUUGCAUAGUGUUUAGUUA | 0.00752 ± 0.0034 | 0.00364 ± 0.0032
14 | AGGACCUUGUGCUUGCAUAGUAUUUUCAAA | 0.0677 ± 0.015 | 0.00236 ± 0.0022
15 | UCCUGGAUCAGCUUGACAUAGUAUUUAGUUA | 0.384 ± 0.026 | 0.00499 ± 0.0024
16 | UCCUGGAUCAGCUUGCAUAGCAUUUAGUUA | 0.3 ± 0.021 | 0.0265 ± 0.008
17 | UCCUCCUACAGCUUGCAUAGUAUUUAAGUUA | 0.596 ± 0.031 | 0.0323 ± 0.007
18 | AGGACCUACAGCUUGCAUAGAAUUAAGUUA | 0.311 ± 0.031 | 0.00983 ± 0.004
19 | UGGACCUACUAGCUUGCAUAGUAUUUAGUUA | 0.63 ± 0.036 | 0.0509 ± 0.01
20 | UGGACCUACAGCUUGCUUAGUUUUUAGUUA | 0.21 ± 0.021 | 0.0135 ± 0.0031
